# Data from the supplement of paper PMC8728848.
# This is one part of the list.
# B1: MGL2 (Mus musculus), Q8JZN1 (protein)
# chain: MTMRYENFQNLEREEKNQEMRNGDKKGGMESPKFALIPSQSFLWRILSWTHLLLFSLGLSLLLLVVISVIGSQNSQLRRDLGTLRAILDNTTSKIKAEFQSLDSRADNFEKGISSLKVDVEDHRQELQAGRDLSQKVTSLESTLEKREQALKTDLSDLTDHVQQLETDLKALTCQLANLKNNGSEVACCPLHWTEHEGSCYWFSESEKSWPEADKYCRLENSHLVVVNSLEEQNFLQNRLANVLSWMGLTDQNGPWRWVDGTDFDKGFKNWRPLQPDNWHGHMLGGGEDCAHFSYDGRWNDDVCQRHYHWICETELGKASSAHSPQLIASVP
# What was measured:
# Assay in all cases: glycan array binding signal (z-score within array); higher = stronger binding
# Conditions in all cases: glycan notation: IUPAC condensed, linker removed
# [1] = target: Neu5Ac(a2-6)Gal(b1-4)GlcNAc(b1-2)Man(a1-3)[GlcNAc(b1-4)][Neu5Ac(a2-6)Gal(b1-4)GlcNAc(b1-2)Man(a1-6)]Man(b1-4)GlcNAc(b1-4)GlcNAc
# In short: (§1)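 Columns mapping to the same glycan were averaged after glycan names were converted to IUPAC-condensed notation. The data come from 3228 arrays in the Consortium for Functional Glycomics database, limited to those with an available protein sequence. Binding is reported as a within-array Z-score averaged across arrays of one protein sequence and across linkers.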
# [2] = target: Neu5Ac(a2-6)Gal(b1-4)GlcNAc(b1-2)Man(a1-3)[Man(a1-6)]Man(b1-4)GlcNAc(b1-4)GlcNAc
# In short: as §1
# [3] = target: Neu5Ac(a2-6)Gal(b1-4)GlcNAc(b1-2)Man(a1-3)[Neu5Ac(a2-3)Gal(b1-4)GlcNAc(b1-2)Man(a1-6)]Man(b1-4)GlcNAc(b1-4)GlcNAc
# In short: as §1
# [4] = target: Neu5Ac(a2-6)Gal(b1-4)GlcNAc(b1-2)Man(a1-3)[Neu5Ac(a2-6)Gal(b1-4)GlcNAc(b1-2)Man(a1-6)]Man(b1-4)GlcNAc(b1-4)GlcNAc
# In short: as §1
# [5] = target: Neu5Ac(a2-6)Gal(b1-4)GlcNAc(b1-2)Man(a1-3)[Neu5Ac(a2-6)Gal(b1-4)GlcNAc(b1-2)Man(a1-6)]Man(b1-4)GlcNAc(b1-4)[Fuc(a1-6)]GlcNAc
# In short: as §1
# [6] = target: Neu5Ac(a2-6)Gal(b1-4)GlcNAc(b1-2)Man(a1-6)Man(b1-4)GlcNAc(b1-4)GlcNAc
# In short: as §1
# [7] = target: Neu5Ac(a2-6)Gal(b1-4)GlcNAc(b1-2)Man(a1-6)[Gal(b1-4)GlcNAc(b1-2)Man(a1-3)]Man(b1-4)GlcNAc(b1-4)GlcNAc
# In short: as §1
# [8] = target: Neu5Ac(a2-6)Gal(b1-4)GlcNAc(b1-2)Man(a1-6)[GlcNAc(b1-2)Man(a1-3)]Man(b1-4)GlcNAc(b1-4)GlcNAc
# In short: as §1
# [9] = target: Neu5Ac(a2-6)Gal(b1-4)GlcNAc(b1-2)Man(a1-6)[Man(a1-3)]Man(b1-4)GlcNAc(b1-4)GlcNAc
# In short: as §1
# [10] = target: Neu5Ac(a2-6)Gal(b1-4)GlcNAc(b1-2)[Neu5Ac(a2-6)Gal(b1-4)GlcNAc(b1-4)]Man(a1-3)[GlcNAc(b1-4)][Neu5Ac(a2-6)Gal(b1-4)GlcNAc(b1-2)[Neu5Ac(a2-6)Gal(b1-4)GlcNAc(b1-6)]Man(a1-6)]Man(b1-4)GlcNAc(b1-4)GlcNAc
# In short: as §1
# [11] = target: Neu5Ac(a2-6)Gal(b1-4)GlcNAc(b1-2)[Neu5Ac(a2-6)Gal(b1-4)GlcNAc(b1-4)]Man(a1-3)[GlcNAc(b1-4)][Neu5Ac(a2-6)Gal(b1-4)GlcNAc(b1-4)Man(a1-6)]Man(b1-4)GlcNAc(b1-4)GlcNAc
# In short: as §1
# [12] = target: Neu5Ac(a2-6)Gal(b1-4)GlcNAc(b1-2)[Neu5Ac(a2-6)Gal(b1-4)GlcNAc(b1-6)]Man(a1-6)[Neu5Ac(a2-6)Gal(b1-4)GlcNAc(b1-2)Man(a1-3)][GlcNAc(b1-4)]Man(b1-4)GlcNAc(b1-4)GlcNAc
# In short: as §1
# [13] = target: Neu5Ac(a2-6)Gal(b1-4)GlcNAc(b1-3)Gal(b1-3)GlcNAc
# In short: as §1
# [14] = target: Neu5Ac(a2-6)Gal(b1-4)GlcNAc(b1-3)Gal(b1-4)GlcNAc
# In short: as §1
# [15] = target: Neu5Ac(a2-6)Gal(b1-4)GlcNAc(b1-3)Gal(b1-4)GlcNAc(b1-2)Man(a1-3)[Neu5Ac(a2-6)Gal(b1-4)GlcNAc(b1-3)Gal(b1-4)GlcNAc(b1-2)Man(a1-6)]GalNAc
# In short: as §1
# [16] = target: Neu5Ac(a2-6)Gal(b1-4)GlcNAc(b1-3)Gal(b1-4)GlcNAc(b1-3)Gal(b1-4)GlcNAc
# In short: as §1
# [17] = target: Neu5Ac(a2-6)Gal(b1-4)GlcNAc(b1-3)Gal(b1-4)GlcNAc(b1-3)Gal(b1-4)GlcNAc(b1-2)Man(a1-3)[Neu5Ac(a2-6)Gal(b1-4)GlcNAc(b1-3)Gal(b1-4)GlcNAc(b1-3)Gal(b1-4)GlcNAc(b1-2)Man(a1-6)]GalNAc
# In short: as §1
# [18] = target: Neu5Ac(a2-6)Gal(b1-4)GlcNAc(b1-3)Gal(b1-4)GlcNAc(b1-3)GalNAc
# In short: as §1
# [19] = target: Neu5Ac(a2-6)Gal(b1-4)GlcNAc(b1-3)Gal(b1-4)GlcNAc(b1-3)[Neu5Ac(a2-6)Gal(b1-4)GlcNAc(b1-3)Gal(b1-4)GlcNAc(b1-6)]GalNAc
# In short: as §1
# [20] = target: Neu5Ac(a2-6)Gal(b1-4)GlcNAc(b1-3)Gal(b1-4)GlcNAc(b1-6)[Gal(b1-3)]GalNAc
# In short: as §1
# [21] = target: Neu5Ac(a2-6)Gal(b1-4)GlcNAc(b1-3)Gal(b1-4)[Fuc(a1-3)]GlcNAc(b1-3)Gal(b1-4)[Fuc(a1-3)]GlcNAc
# In short: as §1
# [22] = target: Neu5Ac(a2-6)Gal(b1-4)GlcNAc(b1-3)GalNAc
# In short: as §1
# [23] = target: Neu5Ac(a2-6)Gal(b1-4)GlcNAc(b1-3)[Neu5Ac(a2-6)Gal(b1-4)GlcNAc(b1-6)]GalNAc
# In short: as §1
# [24] = target: Neu5Ac(a2-6)Gal(b1-4)GlcNAc(b1-6)GalNAc
# In short: as §1
# [25] = target: Neu5Ac(a2-6)Gal(b1-4)GlcNAc(b1-6)[Gal(b1-3)GlcNAc(b1-3)]Gal(b1-4)Glc
# In short: as §1
# [26] = target: Neu5Ac(a2-6)Gal(b1-4)GlcNAc(b1-6)[Gal(b1-3)]GalNAc
# In short: as §1
# [27] = target: Neu5Ac(a2-6)Gal(b1-4)GlcNAc6S
# In short: as §1
# [28] = target: Neu5Ac(a2-6)GalNAc
# In short: as §1
# [29] = target: Neu5Ac(a2-6)GalNAc(b1-4)GlcNAc
# In short: as §1
# [30] = target: Neu5Ac(a2-6)GalNAc(b1-4)GlcNAc6S
# In short: as §1
# [31] = target: Neu5Ac(a2-6)GlcNAc(b1-4)GlcNAc
# In short: as §1
binder,measurement,setting,value
B1,glycan array binding signal (z-score),[1],-0.254
same,glycan array binding signal (z-score),[2],-0.199
same,glycan array binding signal (z-score),[3],-0.217
same,glycan array binding signal (z-score),[4],-0.178
same,glycan array binding signal (z-score),[5],-0.157
same,glycan array binding signal (z-score),[6],-0.268
same,glycan array binding signal (z-score),[7],-0.174
same,glycan array binding signal (z-score),[8],-0.184
same,glycan array binding signal (z-score),[9],-0.178
same,glycan array binding signal (z-score),[10],-0.223
same,glycan array binding signal (z-score),[11],-0.19
same,glycan array binding signal (z-score),[12],-0.258
same,glycan array binding signal (z-score),[13],-0.032
same,glycan array binding signal (z-score),[14],-0.298
same,glycan array binding signal (z-score),[15],0.141
same,glycan array binding signal (z-score),[16],-0.239
same,glycan array binding signal (z-score),[17],0.66
same,glycan array binding signal (z-score),[18],-0.283
same,glycan array binding signal (z-score),[19],0.233
same,glycan array binding signal (z-score),[20],-0.073
same,glycan array binding signal (z-score),[21],-0.246
same,glycan array binding signal (z-score),[22],-0.116
same,glycan array binding signal (z-score),[23],-0.205
same,glycan array binding signal (z-score),[24],-0.074
same,glycan array binding signal (z-score),[25],-0.123
same,glycan array binding signal (z-score),[26],-0.022
same,glycan array binding signal (z-score),[27],-0.16
same,glycan array binding signal (z-score),[28],-0.206
same,glycan array binding signal (z-score),[29],-0.218
same,glycan array binding signal (z-score),[30],-0.1
same,glycan array binding signal (z-score),[31],-0.233
